Experimental data from patent publication US20060263299A1, “Effect of substances on sexual function” (priority 2005, published 2006).

Experiments:
male Sprague-Dawley rats = test: Reversal of fluoxetine-induced deficits in non-contact penile erections by co-administered agents; format: in vivo, rat; details: for mean number of non-contact penile erections: mean+sem
Procedure: On the day of behavioral testing, antidepressants were administered intraperitoneally (i.p.) as one hour pretreatments. For reversal experiments, apomorphine (Sigma; St. Louis, Mo.) was dissolved in 0.9% sterile saline vehicle and injected subcutaneously in a volume of 1 ml/kg. […] 17B-estradiol benzoate and progesterone were purchased from Sigma (St. Louis, Mo.).
Data are presented as group means±sem. For statistical analysis, data was subjected to one way analysis of variance (ANOVA) with a least significant difference (LSD) post-hoc test as appropriate. Statistical significance was achieved when p<0.05.
To determine the effects of female stimuli on non-contact penile erections, sexually receptive females were brought into the testing room one hour prior to the start of behavioral testing in order to provide female visual, olfactory, and auditory stimuli for males. The testing arena for observing non-contact penile erections in male rats consisted of an empty rat size Plexiglas cage (11×10 inches) containing no bedding, with an aerated plastic lid and a total ceiling height of 12 inches. […] A penile erection consisted of observation of the male rat in a hunched position grasping the penis with the forepaws and followed by a series of pelvic thrusts. The number of penile erections were quantified over a 30 minute observation session.
In a similar study, the ability of additional substances to reverse (or at least partially reverse) the effects of antidepressant-induced sexual dysfunction was evaluated. Sildenafil citrate (available as VIAGRA from Pfizer Inc. of New York, N.Y.), yohimbine and dopamine agonists were studied in the foregoing manner.

[1] = Locomotor activity observed during the non-contact penile erection test; details: bupropion 20 mg/kg/day i.p. for 7 and 14 days (subchronic and chronic)

| SMILES | mean number of non-contact penile erections (male Sprague-Dawley rats; acute apomorphine 0.03 mg/kg s.c. co-administered with chronic (14 day) fluoxetine 10 mg/kg/day i.p.) | mean number of non-contact penile erections (male Sprague-Dawley rats; acute apomorphine 0.03 mg/kg s.c. co-administered with chronic (14 day) saline vehicle i.p.) | reversal of the number of non-contact penile erections relative to acute vehicle+chronic fluoxetine treated group (male Sprague-Dawley rats; acute apomorphine 0.03 mg/kg s.c. with chronic fluoxetine, P=0.0622) | mean number of non-contact penile erections (male Sprague-Dawley rats; acute apomorphine 0.1 mg/kg s.c. co-administered with chronic (14 day) fluoxetine 10 mg/kg/day i.p.) | reversal of the number of non-contact penile erections relative to acute vehicle+chronic fluoxetine treated group (male Sprague-Dawley rats; acute apomorphine 0.1 mg/kg s.c. with chronic fluoxetine, P<0.05) | increased locomotor activity / hyperactivity [1] |
| --- | --- | --- | --- | --- | --- | --- |
| CN1CCc2cccc3c2[C@H]1Cc1ccc(O)c(O)c1-3 [apomorphine] | 2.57+0.69 | 3.00+0.38 | 51.4% | 2.88+0.61 | 56.5% |  |
| CC(NC(C)(C)C)C(=O)c1cccc(Cl)c1 (stereo not drawn) [bupropion, (.+−.)-1-(3-chlorophenyl)-2-[(1,1-dimethylethyl)amino]-1-propanone] |  |  |  |  |  | not observed |
